Here are results for 219 sequences from article PMC10668032.

This is one part of the list. At the low end of the ranking the order means little.

The test deals with SIX1-Q177R homeodomain (UniProt Q15475). The experiment in a line: universal protein binding microarray. The note with it: Universal all-10-mer PBM (8x60K, AMADID 030236), 300 nM GST-tagged protein, Alexa Fluor 488 anti-GST; buffer, salt, pH and temperature not stated; high values mean tight binding; most listed sequences are background and not binding sites; double strand, one strand shown.
Regarding GATATACC, the binding signal came out at 0.107 E-score.
AATAAATA: the binding signal is -0.0122 E-score.
Regarding CTCAGTAC, the binding signal was -0.0363 E-score.
The value for CACGACTA was 0.22 E-score; that for ACCGCGAG was 0.0789 E-score; that for ATTGTAAC was -0.00475 E-score.
As for ACTCCCAT, the binding signal amounted to 0.112 E-score.
Then AACTAGCT, with -0.102 E-score.
With ATGAATCC, the binding signal is -0.0709 E-score.
Then ATGTTCTC, with -0.168 E-score; and CGGGATAA, with -0.0428 E-score; and CCCGATTA, with 0.166 E-score.
Then CATGTCGA, with -0.0764 E-score.
Then GATCATGA, with -0.114 E-score; and CCTTGACC, with 0.172 E-score.
Consider AGCGGAGG, for which the binding signal was determined as 0.0793 E-score.
The value for GCAATTCA was -0.232 E-score.
In the case of ACCGCCGT, the binding signal worked out at 0.0418 E-score.
Take AACATTGG: the binding signal is -0.168 E-score.
The value for GCAGCTCC was -0.0733 E-score.
Then CGAGGGAA, with -0.0121 E-score; and ATAGGTGA, with -0.0739 E-score; and CCGCACAG, with 0.000355 E-score.
On to CCGGCTGA, for which the binding signal is 0.124 E-score.
On to AGTTCAAG, for which the binding signal was -0.185 E-score.
Consider AGCAGTCG, for which the binding signal is -0.136 E-score.
The value for ATTAGCAG was 0.021 E-score.
Then GTGCTCGA, with 0.00651 E-score.
Then TAGTTTGA, with -0.106 E-score; and GGAAATCC, with -0.149 E-score.
In the case of ACGCCAGA, the binding signal is 0.0534 E-score.
Then AGGGCACT, with -0.0979 E-score; and AGTCTACA, with 0.00161 E-score; and CATACGCA, with 0.0651 E-score.
The value for TTCCAGAA was -0.0798 E-score; that for TCGGTGAA was -0.0747 E-score; that for ACTCTCAA was -0.0235 E-score.
Then AGTGTGGC, with 0.193 E-score; and CATAGACC, with -0.0744 E-score; and ATGCATCC, with -0.228 E-score.
For ACAGAAAC, the binding signal is -0.0356 E-score.
For AACGCGGA, the binding signal was -0.0488 E-score.
GACCGAGC: the binding signal was -0.157 E-score.
Then CAGGAGCG, with -0.117 E-score; and CCCTTACA, with 0.281 E-score.
Then GCTCTGCA, with -0.0598 E-score.
In the case of ATCCAAGA, the binding signal was -0.0372 E-score.
Take CAGGCGTC: the binding signal was -0.0952 E-score.
With ACCACCTA, the binding signal is 0.076 E-score.
For AACAAACG, the binding signal was -0.152 E-score.
The value for CCCAGTCA was 0.105 E-score.
In the case of CGCAGAAG, the binding signal is -0.0836 E-score.
As for GCATGCAC, the binding signal worked out at 0.126 E-score.
The value for ATTTCGAA was -0.188 E-score.
The value for CACACCGC was 0.412 E-score; that for GTACTCTA was 0.0786 E-score.
Consider GTCCGCAC, for which the binding signal is 0.0282 E-score.
For the sequence AAAGTGAG, the binding signal was -0.167 E-score.
The value for CAGTTCAG was -0.0804 E-score.
Regarding CCATCACG, the binding signal is -0.0894 E-score.
Then AGGTACAT, with -0.105 E-score; and CTAGCTAC, with -0.0175 E-score; and AGAGCTGC, with -0.137 E-score.
Then GGACAGAC, with -0.229 E-score; and ACAGCATG, with -0.137 E-score.
For GAGCTACC, the binding signal is -0.0589 E-score.
The value for GATTTGAA was -0.125 E-score; that for TGGAACAA was -0.239 E-score; that for CACTGTCC was 0.0667 E-score.
Then CCAGGTGA, with -0.0302 E-score; and CGTTATAA, with 0.0165 E-score.
Then GACCACTA, with -0.0418 E-score; and TCAAAAAA, with -0.219 E-score.
TCCGCCAA: the binding signal was -0.195 E-score.
Turning to AAGAGAAA, the binding signal was -0.163 E-score.
Consider ACGGTTGG, for which the binding signal is -0.0283 E-score.
In the case of GCTGGTCC, the binding signal is -0.0481 E-score.
Then CTCAACGC, with -0.0419 E-score; and AGAGTGAA, with 0.0429 E-score; and AAGAACTC, with -0.112 E-score.
Regarding CGATTAAG, the binding signal is -0.17 E-score.
Then AAATCCTT, with -0.129 E-score; and AATGACAT, with -0.257 E-score; and AAACTCAC, with -0.0698 E-score.
The value for CGTTGTAA was -0.131 E-score; that for GTATGCCA was 0.0101 E-score.
The value for GATGCAAA was -0.131 E-score; that for CAACTCGA was -0.0261 E-score; that for TCTATACA was 0.0974 E-score.
Turning to AATCGCAC, the binding signal was -0.0327 E-score.
The value for GGTAGTAA was 0.0612 E-score.
The value for CATCTAAC was -0.0832 E-score; that for GGATTACC was 0.0148 E-score.
The value for GAGAGGCA was -0.0637 E-score; that for GCTGCCGA was -0.166 E-score.
Consider GAGTTGAA, for which the binding signal is -0.169 E-score.
Then CTGCGTCA, with -0.203 E-score; and AGCGTTCC, with -0.299 E-score; and CTACACCA, with 0.474 E-score.
The value for CACAGAAA was 0.0521 E-score; that for ATGCTTGG was -0.246 E-score; that for AATGAGCG was -0.145 E-score.
ACTCAGGC: the binding signal is 0.069 E-score.
Then CCCACAGG, with 0.126 E-score; and ATTTTTGG, with -0.23 E-score; and CAACGCAG, with -0.0865 E-score.
In the case of ACGGTCCC, the binding signal was -0.19 E-score.
Then ACTGCTAG, with -0.133 E-score; and ACAGGGCG, with 0.01 E-score; and AGGCTCCC, with -0.133 E-score.
The value for CCGGCCAC was 0.0355 E-score; that for AGAGGATA was 0.0593 E-score; that for CTCATGAG was -0.154 E-score.
Then ATACCATG, with 0.133 E-score.
Consider ACTGAGCA, for which the binding signal was 0.0705 E-score.
Take CGCTAGTC: the binding signal is -0.137 E-score.
As to ACATAAAG, the binding signal was -0.129 E-score.
The value for AATGGTTC was 0.0384 E-score; that for AAATTTAG was -0.241 E-score; that for AACGCACT was -0.0915 E-score.
The value for AAGTTCGG was 0.0775 E-score; that for AGCCTCCC was -0.194 E-score.
The value for AGGTGGAA was -0.0575 E-score; that for TGCCTGAA was -0.118 E-score; that for ATCTCCAC was -0.0994 E-score.
As to AACCGAAT, the binding signal is -0.112 E-score.
As to ACGGCTGA, the binding signal was -0.103 E-score.
The value for CTCGCGTC was 0.144 E-score; that for CAGACCAG was -0.251 E-score; that for AAACAAAC was -0.165 E-score.
Then CCGAGTCG, with 0.129 E-score; and GGAATTGA, with -0.121 E-score.
The value for AGTCATCA was -0.164 E-score; that for AAATGTTG was -0.298 E-score; that for ACTGCCAA was 0.117 E-score.
Take GGTCCCAA: the binding signal amounted to 0.126 E-score.
For the sequence ATAAGTGA, the binding signal is -0.146 E-score.
Regarding ATAAAAAG, the binding signal is -0.149 E-score.
As to CGATGTAA, the binding signal was determined as 0.00147 E-score.
Take ACTGCAGG: the binding signal was -0.132 E-score.
Turning to GTTTCTTA, the binding signal was 0.0667 E-score.
Take CAACCCCG: the binding signal came to 0.173 E-score.
Then CCTGGACA, with 0.105 E-score; and ATAGCGAT, with -0.201 E-score; and GATGGTTA, with 0.029 E-score.
As for GAGAGATC, the binding signal amounted to 0.0714 E-score.
With AACAGAAC, the binding signal was -0.317 E-score.
Then CATGTGGA, with -0.0707 E-score; and CCTGAACA, with 0.254 E-score; and GCTAATAA, with -0.178 E-score.
For AGTGAAGG, the binding signal worked out at 0.0295 E-score.
The value for ATCAACCA was -0.125 E-score.
Then CAAGCGTA, with -0.0155 E-score; and CGTCCCGC, with 0.0594 E-score.
The value for CCAACAGC was 0.00592 E-score.
For the sequence TGATAGCA, the binding signal is 0.00048 E-score.
In the case of ATGCTATC, the binding signal is -0.0679 E-score.
Regarding CGATCTAA, the binding signal is -0.0786 E-score.
As for GGGAACGA, the binding signal was -0.227 E-score.
The value for ATTAGATC was -0.106 E-score.
The value for AATACTCC was 0.123 E-score.
For the sequence AGAAATCC, the binding signal is -0.242 E-score.
Then GTAACTCA, with -0.182 E-score.
For the sequence GTCTCTGA, the binding signal was determined as 0.026 E-score.
Then AGCAGCTG, with -0.0574 E-score; and AACAACAA, with -0.0903 E-score; and CCGCGGAC, with 0.0698 E-score.
Take TATCGGGA: the binding signal was -0.00825 E-score.
The value for AGACCGCC was -0.0689 E-score; that for GCAACTCA was -0.0632 E-score.
Then CGTGCCCA, with -0.063 E-score; and GGACGGCC, with -0.19 E-score; and AATTCTCG, with -0.18 E-score.
The value for GCGATTAC was 0.027 E-score; that for ATCTGCCG was -0.0742 E-score; that for CATTGATC was -0.0127 E-score.
In the case of AGTATAAC, the binding signal is 0.0523 E-score.
The value for GGAAGCAA was -0.0927 E-score; that for ATCGATCA was -0.15 E-score; that for GAGAACTA was -0.179 E-score.
Then CTGTTGCA, with -0.0293 E-score; and CGTTTTGA, with -0.146 E-score.
The value for ACCCCTCA was 0.289 E-score.
Turning to CTCGTGAC, the binding signal is 0.103 E-score.
With GCAGATCA, the binding signal stood at 0.057 E-score.
The value for ATCACTGG was -0.0168 E-score; that for CAATAGCA was 0.0163 E-score.
Then CGAGTAAG, with -0.0511 E-score; and AACCGTCG, with -0.168 E-score; and TAGATACA, with 0.017 E-score.
Take TCTCCAAA: the binding signal was -0.0523 E-score.
With AGCTATCG, the binding signal was -0.151 E-score.
The value for GTGGTGGA was 0.0238 E-score; that for CTGAAAGC was 0.0547 E-score.
The value for AAATGTAT was -0.33 E-score.
The value for CGTTAATC was -0.19 E-score; that for CAGGTGGA was -0.0232 E-score; that for AAGCCGAG was -0.00128 E-score.
Consider AGAGTAGA, for which the binding signal was 0.0276 E-score.
As to CTCCCAAC, the binding signal turned out to be 0.0302 E-score.
AGAACCAT: the binding signal is -0.29 E-score.
The value for CGATACCA was 0.321 E-score.
CTAGCGAC: the binding signal is -0.166 E-score.
As for CACAGCAC, the binding signal was 0.0522 E-score.
The value for CTGATATC was -0.213 E-score.
As to ACAGAACC, the binding signal is -0.171 E-score.
The value for AAGTGGGC was -0.0756 E-score; that for ATAGAACG was -0.192 E-score; that for CCGTTAGA was -0.107 E-score.
Then CATGAGGC, with 0.0598 E-score.
The value for CGAGCCCA was 0.125 E-score; that for GCCATGGC was -0.258 E-score.
For CAATCCAG, the binding signal was -0.189 E-score.
In the case of CGCTAGCA, the binding signal is -0.165 E-score.
Then AGACAGGC, with -0.257 E-score; and AAACGTGA, with -0.145 E-score.
The value for CAAAGGAC was -0.00451 E-score.
Then CAAGACGA, with -0.0687 E-score; and CTCTGTGA, with -0.0272 E-score.
